Test results: ChEMBL document CHEMBL1201862, “PubChem BioAssay data set” (2004)

system: NCI-H322M; test: NCI tumour cell line growth inhibition, 48 h

Structure (SMILES)	GI50
C=C(C)C[C@H](Sc1nc2ccccc2s1)[C@H](C)O	inactive: 57.8 µM
C#Cc1nc(N)c2ncn(C3OC(COS(N)(=O)=O)C(O)C3O)c2n1 (stereo not drawn)	active: < 0.0144 µM
CCOC(=O)c1cnc(N(C)C)nc1SC(=N)N	inactive: > 100 µM
Cc1cc(C)cc(Sc2c([N+](=O)[O-])ncn2C)c1	inactive: 30.6 µM
Cc1[nH]n(-c2nc(-c3ccccc3)cc(=O)[nH]2)c(=O)c1CCO	inactive: > 100 µM
c1ccc2cc(C3NCCc4nc[nH]c43)ccc2c1 (stereo not drawn)	inactive: > 100 µM
CC1NOC(=O)C1/N=N/c1ccccc1Br (stereo not drawn)	inactive: 55.2 µM
Cn1cnc([N+](=O)[O-])c1Sc1ccccn1	inactive: > 100 µM
CN1CCN(c2cc3c(cc2F)c(=O)c(C(=O)O)cn3C2CC2)CC1CC#N (stereo not drawn)	inactive: > 100 µM
CC/C(Cl)=N\OC(=O)Nc1ccc(F)c([N+](=O)[O-])c1	inactive: 31.7 µM
CN(CCNC(=O)c1n[nH]c2c1ccc1ccccc12)CCNC(=O)c1n[nH]c2c1ccc1ccccc12	inactive: 2.55 µM
C[C@@H]1CC(=O)[C@@]2(C)[C@](O)(CCC3O[C@]32C)[C@@]12CC(c1ccoc1)OC2=O (stereo partly drawn)	inactive: > 100 µM
Cc1cc2c(cc1Cl)SC(NNC(=O)c1ccco1)=NS2(=O)=O	inactive: > 10 µM
CCOC(=O)N1CC2(C(=O)OC)C=CC1C(C(=O)OC)C2 (stereo not drawn)	inactive: > 100 µM
CSC(=N)N1N=C2/C(=C/c3ccccc3)CCC[C@H]2[C@H]1c1ccccc1	inactive: 3.54 µM
C/C(=N/O)c1ccc2c(c1)/C(=N/O)c1cc(/C(C)=N/O)ccc1-2	inactive: 17.3 µM
c1ccc(-c2nc3ccccc3nc2SCc2cccnc2)cc1	inactive: > 100 µM
CO/N=C(/C(=O)OC)c1ccccc1COc1ccccc1C(F)(F)F	inactive: 57.1 µM
COC1C(=O)CCC2(CO2)C1(O)C1(C)OC1CC=C(C)C (stereo not drawn)	inactive: 27.7 µM
COc1cccc(-c2cc(=O)c3cc(N4CCCCC4)ccc3[nH]2)c1	active: 0.0156 µM
Nc1nc(Cl)c(N)c(NCC2(CO)CC(Cc3ccccc3)C2)n1 (stereo not drawn)	inactive: > 100 µM
COC(=O)C(NC(=O)C12CCC(C)(C(=O)O1)C2(C)C)c1cc(C(C)(C)C)c(O)c(C(C)(C)C)c1 (stereo not drawn)	inactive: > 100 µM
Cc1c(CCCl)c(N=[N+]=[N-])n2c(nc3ccccc32)c1C#N	inactive: 3.33 µM
Cc1cc(S(=O)(=O)NC2=Nc3cccc4cccc(c34)N2)c(S)cc1Cl	inactive: > 100 µM

Structure (SMILES)	GI50
COc1ccc(-c2cc(O)c3nc4ccccc4n3c2)cc1	inactive: > 100 µM
O=C=C=P(c1ccccc1)(c1ccccc1)c1ccccc1	inactive: > 100 µM
CN1CCN(CCCNN)CC1	inactive: > 100 µM
Cc1cccc(/N=N/c2ccc(/N=N/c3c(O)ccc4ccccc34)cc2C)c1	inactive: > 100 µM
CN(CCCN1CCCC1)CCCN(C)C(=O)Cc1ccc(Cl)c(Cl)c1	inactive: 14.8 µM
COc1ccc(/C=N/NC(=O)c2cnc3[nH]c(=O)n(C)c(=O)c3c2)cc1	inactive: > 100 µM
C=C[C@]1(C)CC(O)C2C(=C)C(=O)OC2[C@H]1C(=C)C=O (stereo partly drawn)	inactive: 11.9 µM
CN(C)CCC(CCN(C)C)=NOC(=O)c1ccccc1	inactive: > 100 µM
O=C(c1ccc(Cl)cc1)c1ccc(OCCCOc2ccc(C(=O)c3ccc(Cl)cc3)cc2Cl)c(Cl)c1	inactive: > 100 µM
CCCCCCCCCC1CC(=O)OC23CCCC(=O)C12O3 (stereo not drawn)	inactive: > 100 µM
COc1cc(/C=N/c2nc3cc4sc(/N=C/c5cc(OC)c(OC)c(OC)c5)nc4cc3s2)cc(OC)c1OC	inactive: > 100 µM
Nc1c(Cl)cc(-c2nc3ccccc3s2)cc1Cl	inactive: > 100 µM
CN(C(=O)c1ccco1)C(=S)N1CCN(c2ccccc2)CC1	inactive: > 100 µM
COc1ccc(Cn2c3c(cc(OC(C)=O)c2=O)Cc2ccccc2-3)cc1	inactive: 9.84 µM
Cc1ccc(S(=O)(=O)NC2C(=O)c3ccccc3C(=O)C2n2ccnc2)cc1 (stereo not drawn)	inactive: 14.7 µM
O=C1C(Br)=C(C2=CC(=P(c3ccccc3)(c3ccccc3)c3ccccc3)C=C2)C(=O)C(Br)=C1C1=CC(=P(c2ccccc2)(c2ccccc2)c2ccccc2)C=C1	inactive: 77.1 µM
c1ccc2c3ccn4ccc5c6ccccc6[nH]c5c4c-3nc2c1	active: 1.07 µM
CCOC(=O)C(Cc1ccc([N+](=O)[O-])cc1)NC(=O)CC1c2ccccc2-c2ccccc21 (stereo not drawn)	inactive: > 100 µM
CCCCCCCCCCCCCCCCSCC(COC)COP(=O)([O-])OCC[N+](C)(C)C (stereo not drawn) [ILMOFOSINE]	inactive: 15.3 µM
C/C(CC(=O)NCCc1ccccc1)=N\NC(=O)C[n+]1ccccc1	inactive: > 100 µM
CC(Cn1c2c3ccccc3ccc2c2oc(=O)c3ccccc3c21)N(C)C (stereo not drawn)	inactive: > 100 µM
CN(CCc1ccccn1)c1ccc2c(c1)Cc1ccccc1-2	inactive: 25.1 µM
CC[n+]1c(/C=C/c2ccc(N(CCCl)CCCl)cc2)ccc2cc(Br)ccc21	inactive: 3.45 µM
CCN(CC)C(=S)SS(=O)(=O)c1ccc(F)cc1	inactive: > 100 µM

Structure (SMILES)	GI50
Cc1c2ccncc2cc2c1[nH]c1ccccc12	inactive: 3.05 µM
CC(NC(=O)Cc1ccc(OP(=O)(OCc2ccc([N+](=O)[O-])o2)N(C)CCCCCl)cc1)c1ccc(OCC2CCCCC2)c(C(N)=O)c1 (stereo not drawn)	inactive: 2.8 µM
COc1ccc(-c2nnc(CCCCCCCCc3nnc(-c4ccc(OC)cc4)n3N)n2N)cc1	inactive: > 100 µM
CC1CC[P+](c2ccccc2)(c2ccccc2)CC1	inactive: > 100 µM
N#Cc1ccc(Oc2nc3ccc(C(F)(F)F)cc3nc2-c2ccccc2)cc1	inactive: 17.6 µM
COc1ccc2c(c1)C(O)(C(F)(F)F)c1cc(C(=O)C(F)(F)F)c3ccccc3c1N2 (stereo not drawn)	inactive: 12.2 µM
CC1(C)S[C@@H]2[C@H](NC(=O)[C@H](N)c3ccccc3)C(=O)N2[C@H]1C(=O)O [AMPICILLIN]	inactive: > 100 µM
N#C/C(=C\c1ccc2[nH]ccc2c1)C(=O)c1ccc(O)c(O)c1	inactive: 88.1 µM
C=CCNC(=O)NNC(O)(C(=O)OCC)C(F)(F)F (stereo not drawn)	inactive: > 100 µM
COc1cc(C(=O)C/C(CCC(=O)Nc2ccc(Cl)cc2Cl)=N/NC(=O)C(=O)NN)ccc1O	inactive: > 100 µM
CCC(=O)/C(=C\I)c1ccccc1	inactive: 14.5 µM
CCOC(=O)C(NC(=O)c1ccccc1)(Nc1ccc(S(=O)(=O)Nc2ccc(OC)nn2)cc1)C(F)(F)F (stereo not drawn)	inactive: > 100 µM
C/N=C(\Nc1cccc(C(F)(F)F)c1)SCc1ccc(N=C=S)cc1	inactive: 17.5 µM
CC(=O)c1c(-c2ccccc2)c(-c2ccc(OCCN(C)C)cc2)n2ccccc12	inactive: 15.5 µM
COC(=O)C1(Cc2ccccc2)Cc2cc3c(cc2C1)CCC3	inactive: 12.2 µM
O=C1/C(=C/c2ccco2)N=C(c2ccccc2)N1c1cc2cc(Sc3ccccc3)ccc2[nH]1	inactive: > 25 µM
CCOC(=O)c1cc(C(O)P2(=O)N(CC(C)(C)C)[C@@H]3CCCC[C@H]3N2CC(C)(C)C)cn1C(=O)OC(C)(C)C (stereo partly drawn)	inactive: 19.9 µM
CC(=O)NC(Cc1ccccc1)NC(=O)O (stereo not drawn)	inactive: > 100 µM
O=C1Nc2nc3ccccc3n2N=C2CCCC12 (stereo not drawn)	inactive: 68.9 µM
O=c1[nH]c2ccccc2c2nc3ccccc3n12	inactive: 44 µM
CC1=C(C(=O)Nc2ccc([N+](=O)[O-])cc2)C(c2ccco2)C(C(=O)Nc2ccc([N+](=O)[O-])cc2)=C(C)N1	inactive: 12.2 µM
Cc1cccc2c1Oc1cc(Cl)ccc1C2NC(=O)CCN1CCOCC1 (stereo not drawn)	inactive: > 100 µM
Cc1ccc2c(c1)OC1Nc3ccccc3C1=C2O (stereo not drawn)	inactive: 30.5 µM
N#CC(c1cc(Cl)ncn1)c1nc2cc(C(F)(F)F)ccc2s1 (stereo not drawn)	inactive: 6.21 µM

Structure (SMILES)	GI50
Cc1ccc(/N=N/c2c(O)c3ccccc3[nH]c2=O)c(S(=O)(=O)N(C)C)c1	inactive: > 100 µM
COC1=NC(NC2OCC(O)C(O)C2O)=C(NC(C)=O)CN1C (stereo not drawn)	inactive: > 100 µM
COC1=C(C)C(=O)C2=C(C1=O)C1C3CC4=C(C(=O)C(OC)=C(C)C4=O)C(CNC(=O)C(C)O)N3C(C#N)C(C2)N1C (stereo not drawn)	active: 0.0348 µM
CC(C(=O)c1ccc(Cl)cc1)/C(=N/NC(=O)NN)C(=O)Nc1cccc(C(F)(F)F)c1 (stereo not drawn)	inactive: > 100 µM
COc1cccc(/N=N/C(=N\NC(=O)c2ccc(C)cc2)c2ccc(N(CCC#N)CCC#N)cc2C)c1	inactive: > 100 µM
CC(=O)c1cccc(NC(=O)C(=O)NNc2nnc(S)n2N)c1	inactive: 13.1 µM
O=C1Nc2ccccc2/C1=C\c1c(Cl)[nH]c2ccccc12	inactive: 1.71 µM
O=C(CC(C(=O)c1ccsc1)c1ccccc1)c1ccccc1 (stereo not drawn)	inactive: > 100 µM
S=C(/C=C1\SC(=N\c2ccccc2)/C(=N/c2ccccc2)N1c1ccccc1)Nc1ccccc1	inactive: > 100 µM
COc1ccccc1/C=C/C1=NN(c2cccc(S(=O)(=O)O)c2)C2(C1)C(Cl)C(=O)N2c1nc2ccccc2s1 (stereo not drawn)	inactive: > 100 µM
O=C1OC([C@H](O)c2cccnc2)c2ccccc21 (stereo partly drawn)	inactive: > 10 µM
O=C1Sc2ccccc2C(=O)N2CCSC12 (stereo not drawn)	inactive: > 100 µM
C=C1C(=O)OC2C1CC[C@H](C)C13OC(=O)CC1[C@@]23C (stereo partly drawn)	inactive: > 100 µM
CC1CCP(=O)(c2ccccc2)c2ccccc21 (stereo not drawn)	inactive: > 100 µM
NC(Cc1ccc2oc3cc(=O)c4ccccc4c-3nc2c1)C(=O)O (stereo not drawn)	inactive: 18.6 µM
CN(C)CCN1CCc2c([nH]c3ccccc23)C1c1cccnc1 (stereo not drawn)	inactive: > 100 µM
Sc1nnc(COc2ccc(Cl)cc2)[nH]1	inactive: > 100 µM
Cc1cc2c(-c3ccccc3)cc(=O)[nH]c2cc1N	inactive: > 100 µM
COC(=O)[C@H](Cc1c[nH]c2ccccc12)NP(=O)(OCCC#N)OCC1OC(n2cc(C)c(=O)[nH]c2=O)CC1N=[N+]=[N-] (stereo partly drawn)	inactive: > 100 µM
CN(C)/C=C/c1nnnn1-c1ccc(I)cc1	inactive: 22.3 µM
COC(=O)[C@@H]1CN(C(C)=O)C(=O)N1C(=O)OCc1ccccc1	inactive: > 100 µM

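Growth conditions: 96-well plates. Treatment: test compound, 48 hours, 5 concentrations. Analysis: linear interpolation between bracketing concentrations; unreached endpoints set to highest concentration. The concentration for 50% growth inhibition is given as GI50.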 Active and inactive are the calls of the source. No stated cut-off is given here; in the data, active = GI50 up to about 1.1 µM and inactive = higher.
